Drawing on PubChem BioAssay AID463173 (ICCB-Longwood Screening Facility, Harvard Medical School, 2010), this text covers survival for 89 molecules.

Structures are written as SMILES. Among all 52,000 compounds or so, about 4,300 (8.3%) were called active. No stated cut-off is given here; in the data, active means survival mostly below about 52% (no sharp cut-off); inactive means mostly above about 56%. This is one part of the list.

The test system of the assay is DeltatarO mutant. The experiment in a line: S. aureus survival, RN4220 and DeltatarO strains – OD600, teichoic acid synthesis inhibitors, primary screen (AID 463173). The following applies: S. aureus RN4220 wild type/DeltatarO growth, OD600, 18 h, hits give low values, screened at 18.75 µg/mL (by protocol).
For the molecule `CCOc1ccccc1CNC(=O)c1cc(-c2ccc(OC)cc2)nc2ccc(C(C)C)cc12`, the survival was inactive: 66%.
Regarding `COc1cc(C2c3c(oc4ccccc4c3=O)C(=O)N2c2nnc(C(C)C)s2)cc(OC)c1OC` (centres undefined), the survival was inactive: 63%.
The same measure for `Cc1ccc(NC(=O)C(=O)NCC(c2cccnc2)N2CCc3ccccc32)cc1Cl` (centres undefined): inactive: 97%.
Then `COc1ccc(S(=O)(=O)N(CC(=O)NCc2ccc(C)cc2)c2ccc(Cl)cc2)cc1`, with inactive: 127%; and `CCOc1ccccc1NC(=O)CN1C(=O)C2(SCC(=O)N2c2cccc(F)c2)c2ccccc21` (centres undefined), with inactive: 69%.
Then `O=C(Nc1ccc(F)c(Cl)c1)c1cc(S(=O)(=O)N2CCCc3ccccc32)ccc1F`, with inactive: 109%.
For `Cc1c(Cl)cccc1NC(=O)CCn1nc(C)c2c(C)n(-c3ccccc3)nc2c1=O`, the survival was inactive: 92%.
Regarding `COc1ccc(NC(=O)c2sc3nc(C)c(C(=O)Nc4ccc(Cl)cc4)c(-c4ccc(Br)cc4)c3c2N)cc1`, the survival was inactive: 57%.
As to `CCOc1ccc(C(=O)N2CCCCC2CCN2CCOCC2)cc1` (centres undefined), the survival is inactive: 76%.
The same measure for `COc1cccc(-c2cc(C(=O)Nc3ccc(C)cc3)[nH]n2)c1`: inactive: 95%; for `COc1ccc(C(=O)N2CCc3cc(OC)c(OC)cc3C2COc2ccc3c(C)cc(=O)oc3c2)c(OC)c1` (centres undefined): inactive: 51%; for `Cc1cc(C)n(-c2nc3ccccc3nc2Nc2cc(C(=O)O)ccc2C)n1`: active: 42%.
The same measure for `Cc1cc(C)cc(-n2nnc(-c3nc(-c4ccccc4F)no3)c2C)c1`: inactive: 76%.
Turning to `COc1cc(NS(=O)(=O)c2ccc3c(c2)CCCN3C(C)=O)cc(OC)c1OC`, the survival is inactive: 89%.
In the case of `Cc1ccc(CN2CCN(CC(=O)NCc3ccccc3Cl)C2=O)cc1`, the survival is inactive: 70%.
Take `COc1cccc(CNC(=O)CCCN2C(=O)CSc3c2c(C)nn3-c2ccccc2)c1`: the survival was inactive: 83%.
Turning to `Cc1ccc(SCCNS(C)(=O)=O)cc1`, the survival is inactive: 109%.
Take `O=c1c2ccccc2n(Cc2cccc(F)c2)c(=O)n1Cc1ccccc1Cl`: the survival is active: 29%.
In the case of `COc1ccc(-c2ccc3c(N)c(C(=O)Nc4cc(F)ccc4C)sc3n2)cc1`, the survival is inactive: 111%.
For the molecule `Cc1cccc(Nc2c3c(nc4nncn24)CCC3)c1`, the survival is inactive: 69%.
Then `CCn1cc(C(=O)N2CCN(c3cc(C)ccc3C)CC2)c(=O)c2cc(S(=O)(=O)N(C)C3CCCCC3)ccc21`, with inactive: 69%; and `Cc1ccc(-c2cc(C(=O)NCCc3ccccc3)c3c(-c4ccc(C)cc4)[nH]nc3n2)cc1`, with inactive: 76%.
For the molecule `COc1ccccc1N1CCN(CC(O)COc2cc(C)cc(C)c2)CC1` (centres undefined), the survival was inactive: 71%.
Then `CCOc1ccc(N2C(=O)N(Cc3ccc(C)cc3C)c3ccccc3S2(=O)=O)cc1`, with inactive: 94%.
Then `COc1cccc(-n2cc(C(=O)NCc3cccc(Cl)c3)c3ccccc3c2=O)c1`, with active: 58%; and `COc1ccc(S(=O)(=O)Nc2cc3c(cc2NCc2ccccc2)n(C)c(=O)n3C)cc1OC`, with inactive: 90%; and `CCOc1ccc(NC(=O)c2ccc(-c3ccccc3)s2)cc1`, with inactive: 86%.
`Cc1nc2c(-c3ccc(F)cc3)c(C)nn2c(C)c1CCC(=O)NCc1ccc(Cl)cc1`: the survival was inactive: 96%.
Then `Cc1cc(C)n(C(C)n2nc(C)cc2C)n1`, with inactive: 93%; and `COc1ccccc1N1CCN(C(=O)Cn2c(=O)nc(-c3ccccc3)c3cc(Cl)ccc32)CC1`, with inactive: 83%.
The same measure for `CCCCN1CCc2nc(N3CCN(c4ncccn4)CC3)ncc2C1`: inactive: 94%.
The same measure for `Cc1ccc(NC(=O)CSc2nc3c([nH]c4ccccc43)c(=O)n2-c2ccccc2)c(C)c1`: inactive: 96%; for `CCN(c1ccccc1)S(=O)(=O)c1ccc(NC(=O)c2cc(=O)c3cc(C)c(C)cc3o2)cc1`: inactive: 49%; for `Cc1cccc(NS(=O)(=O)c2ccc3c(c2)CCN3C(=O)CCC(=O)O)c1C`: inactive: 82%.
Take `O=C(NCCc1nc2ccccc2[nH]1)c1ccc(F)cc1`: the survival is inactive: 81%.
Then `Cc1c(Cl)cccc1NC(=O)c1ccc(C(=O)Nc2cccc(Cl)c2C)cc1`, with inactive: 81%.
The same measure for `COCCCNC(=O)c1sc2nc(C)c(C(=O)Nc3ccc(C)cc3C)c(-c3ccc(Cl)cc3)c2c1N`: inactive: 139%; for `CC1CCN(C(=O)c2cnn(-c3cccc(Cl)c3)c2C2CCN(C(=O)OC(C)(C)C)CC2)CC1`: inactive: 78%; for `CC(=O)N1CCc2c(sc3c2c(=O)n(-c2ccccc2C)c(=O)n3Cc2cccc(F)c2)C1`: inactive: 72%.
Consider `CC(=O)Nc1ccc(S(=O)(=O)N2CCC(Oc3ccc(-n4cnnn4)cc3)CC2)cc1`, for which the survival was inactive: 110%.
Then `Cc1cccc2c(=O)c(C(=O)NCc3cccs3)c[nH]c12`, with inactive: 85%.
Then `CSc1ccc(CNC(=O)c2ccccc2NC(=O)c2nsc3ccccc23)cc1`, with inactive: 77%; and `COc1ccc(NC(=O)c2c(-c3ccccc3)c(-c3ccccc3)nn(C)c2=O)c(OC)c1`, with inactive: 52%.
Then `COc1ccc(OCC(=O)NCC(c2ccc(Cl)cc2)N2CCCCC2)cc1` (centres undefined), with inactive: 67%.
Regarding `CC(C)c1ccc(S(=O)(=O)Nc2ccc3oc4c(c3c2)C(=O)CC(C)(C)C4)cc1`, the survival is inactive: 133%.
Regarding `Cc1ccc2c(=O)cc(CSc3nnc(-c4ccccc4)n3C)[nH]c2c1C`, the survival was inactive: 85%.
Then `Cc1cc(C)c(NC(=O)c2cc3c(=O)n4ccccc4nc3n2C)c(C)c1`, with inactive: 57%; and `Cc1cc(-c2nc3ncccc3o2)ccc1NC(=O)c1ccc(Br)cc1`, with inactive: 174%.
For the molecule `CCOC(=O)Cn1c(=O)n(C2CCCCC2)c2nc(-c3ccc(Cl)cc3)nc(C(N)=O)c21`, the survival is inactive: 87%.
`COc1ccc(N2CCN(C3=NS(=O)(=O)C(c4cccc(Br)c4)=C3C)CC2)cc1`: the survival is inactive: 80%.
Then `O=C(Oc1ccc2c(c1)OCO2)c1cccc(S(=O)(=O)N2CCCC2)c1`, with inactive: 58%; and `Cc1cc(C)c(NC(=O)CCc2c(C)nc3c(c(C)nn3C(C)(C)C)c2C)c(C)c1`, with inactive: 99%.
The same measure for `CCOC(=O)c1ccc(NC(=O)CCc2c(C)nc3nc[nH]n3c2=O)cc1`: inactive: 100%; for `COC(=O)c1cc2sc(C)cc2n1Cc1ccc(Br)cc1F`: inactive: 89%.
The same measure for `COc1ccc(C2=NN(CC(=O)NCCCN(C)c3ccccc3)C(=O)CC2)cc1`: inactive: 116%.
Consider `COc1ccc(CN2COc3ccc4c(oc(=O)c5ccccc54)c3C2)cc1OC`, for which the survival is inactive: 58%.
The same measure for `Cc1ccccc1Nc1c(-c2ccc(N3CCOCC3)cc2)nc2ncccn12`: inactive: 83%; for `O=C(Nc1ccccc1-c1nc2ccccc2s1)c1cc(Cl)cc(Cl)c1`: inactive: 84%.
The same measure for `Cc1c(CNC(C)CCc2ccccc2)c(C(=O)O)c(C)n1Cc1ccc(F)cc1Cl` (centres undefined): inactive: 64%.
On to `CCCCOc1ccc(C(=O)N(Cc2ccc(C(C)C)cc2)C2CCS(=O)(=O)C2)cc1` (centres undefined), for which the survival is active: 22%.
As for `COC(=O)c1scc(-c2ccccc2)c1S(=O)(=O)Nc1cccc(C)c1C`, the survival is inactive: 85%.
For `COc1ccccc1Nc1nn2c(=O)c3ccc(C(=O)NCCC4=CCCCC4)cc3nc2s1`, the survival is inactive: 84%.
The same measure for `O=C(NCc1ccccc1F)C1CCN(c2nn3cc(-c4ccc(F)cc4)nc3s2)CC1`: inactive: 94%.
Then `CN1c2ccc(Cl)cc2-c2nc(SCC(=O)NCc3ccccc3)ncc2S1(=O)=O`, with inactive: 69%; and `N#Cc1cc[n+](CC(=O)c2cccs2)cc1`, with inactive: 68%; and `COc1ccc(CCn2nnc(-c3ccc(NC(C)=O)c(Cl)c3)n2)cc1`, with inactive: 95%.
On to `Cc1ccc2cc(CN(C(=O)c3cccc(Cl)c3)c3ccccc3)c(=O)[nH]c2c1`, for which the survival was inactive: 74%.
Then `CC1C(=O)N2CCCc3cc(S(=O)(=O)N4CCC(C(N)=O)CC4)cc1c32` (centres undefined), with active: 0%; and `COc1ccccc1NC(=O)c1oc2ccccc2c1NC(=O)C1CCCCC1`, with active: 43%.
Then `CCOC(=O)c1ccc(CN(Cc2ccccc2C)S(=O)(=O)c2ccc(F)c(C)c2)cc1`, with inactive: 80%; and `COCCNc1oc(/C=C/c2ccc(F)cc2)nc1C#N`, with inactive: 82%.
As for `Cc1cc(C)nc(Nc2ccc(O)cc2)n1`, the survival is inactive: 91%.
The same measure for `COc1ccc(Nc2ncnc3c2cnn3-c2ccc(C)cc2)cc1Cl`: inactive: 128%; for `CCCCOc1ccc(-c2nnn(C(C)(C)C(=O)O)n2)cc1`: inactive: 99%.
As for `CCC(=O)N1CCc2cc(Br)cc(S(=O)(=O)CCC(=O)NCc3cccc(OC)c3)c21`, the survival is inactive: 60%.
The same measure for `Cc1ccc(Cn2c(C(=O)O)c(CNC3CCCC3)c3ccc(C)cc32)cc1`: inactive: 83%; for `CCNC(=S)N1CCN(Cc2ccccc2)CC1`: inactive: 113%.
As to `Cc1ccc(OCc2ccc(-c3nc(C#N)c(NCc4ccccc4Cl)o3)o2)cc1`, the survival is inactive: 100%.
Then `O=C(Nc1ccccc1C(F)(F)F)N1CCC(CN2CCc3ccccc3C2)CC1`, with inactive: 67%; and `Cc1cc(C)cc(-n2c(SCC(N)=O)nc3c([nH]c4ccccc43)c2=O)c1`, with inactive: 101%; and `COc1ccc(C)cc1NC(=O)C(Cc1ccccc1)NS(=O)(=O)c1cccs1` (centres undefined), with inactive: 84%.
The same measure for `O=C(NC1CC(=O)N(c2cccc(F)c2)C1)c1cc2ccccc2o1` (centres undefined): inactive: 99%.
In the case of `COc1ccc(N2CCN(Cc3nnnn3CCc3ccccc3)CC2)cc1`, the survival was inactive: 64%.
Then `CCCCn1c(=NC(=O)c2cc3ccccc3o2)c(C(=O)OCC)cc2c(=O)n3ccccc3nc21`, with inactive: 107%.
For `O=C(Cn1c(=O)oc2cc(S(=O)(=O)N3CCCCC3)ccc21)NCc1ccc(Cl)cc1`, the survival is inactive: 66%.
For the molecule `Cc1ccn(C(=O)COc2ccc(Cl)cc2)n1`, the survival is inactive: 99%.
The same measure for `Cc1cc2nc3n(c2cc1C)CCCN3`: inactive: 51%; for `O=C(Oc1ccc(Cl)cc1)c1cc(-c2ccc3c(c2)OCCO3)on1`: inactive: 116%; for `Cc1ccc(-n2c(=O)c3c(cnn3C)n(CC(=O)Nc3ccccc3C)c2=O)cc1`: inactive: 81%.
